From PubChem BioAssay AID504374 (National Center for Advancing Translational Sciences (NCATS), 2011) come the findings set out here.

Several values for one entry are separate records, joined by “and”; a condition that tells them apart may be missing. Equal entries are not always repeated. Hit rate of the full screen: of about 1,500 compounds, about 100 (6.7%) were called active. Inconclusive results (about 7%) are left out. Calls come from the whole dose curve; as a rule, active = well fitted inhibition curve with a large enough effect; inconclusive = small, poorly fitted or top-dose-only effect, or effect the other way; inactive = flat fitted curve, though single readings scatter. The list shows a part of the results.
% is set by controls: 0 for no effect and ±100 for the full control effect; potency is the fitted concentration of half-maximal effect.

Sequence of UniProt Q01196 (Q01196 whole entry, looked up): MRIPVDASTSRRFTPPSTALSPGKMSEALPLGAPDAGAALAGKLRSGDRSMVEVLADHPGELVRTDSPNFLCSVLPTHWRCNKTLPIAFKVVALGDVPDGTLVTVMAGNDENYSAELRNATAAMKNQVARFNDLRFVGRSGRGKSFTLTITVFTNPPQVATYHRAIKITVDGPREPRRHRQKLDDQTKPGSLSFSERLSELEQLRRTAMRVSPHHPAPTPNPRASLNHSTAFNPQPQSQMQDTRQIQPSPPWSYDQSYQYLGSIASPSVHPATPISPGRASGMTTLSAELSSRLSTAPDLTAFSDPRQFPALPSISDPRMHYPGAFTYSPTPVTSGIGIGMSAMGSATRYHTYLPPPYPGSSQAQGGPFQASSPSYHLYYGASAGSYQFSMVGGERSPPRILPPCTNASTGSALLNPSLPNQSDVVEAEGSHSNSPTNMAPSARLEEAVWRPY
Sequence of UniProt Q01196 (Q13951 whole entry, looked up): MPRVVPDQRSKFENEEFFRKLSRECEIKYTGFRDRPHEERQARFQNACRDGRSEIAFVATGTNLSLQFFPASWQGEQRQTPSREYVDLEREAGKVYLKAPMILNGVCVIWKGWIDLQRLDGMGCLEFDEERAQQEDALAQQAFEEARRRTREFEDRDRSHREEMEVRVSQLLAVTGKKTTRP

For the assay, the target named is Runt-related transcription factor 1 (Homo sapiens) + Core-binding factor subunit beta (Homo sapiens) (UniProt Q01196+Q13951). The assay can be described thus: qHTS Assay for Compounds Blocking the Interaction Between CBF-beta and RUNX1 for the Treatment of Acute Myeloid Leukemia: Hit Validation. Note: nearly all actives have a fitted effect of over 60% in size. The following applies: AlphaScreen CBFb-His/RUNX1-biotin binding; series mostly up to 59.8 µM; activity, negative = inhibition: at the top concentration. The text has this:
NIH Chemical Genomics Center [NCGC]
NIH Molecular Libraries Probe Production centers Network [MLPCN]
Assay Submitter (PI): Paul Liu
Core Binding Factor (CBF) abnormalities are associated with 20-25% of all acute myeloid leukemias (AML), of which 5-10% are further sub classified as acute myelomonocytic leukemia with eosinophilia, also known as M4Eo in the FAB classification scheme. This subtype of leukemia is usually associated with chromosome 16 inversion (p13:q22). Chromosome 16 inversion results in formation of the fusion oncogene CBFB-MYH11, which encodes the fusion protein CBF-beta-SMMHC.
It has been hypothesized that the interference of CBF-beta and RUNX1 binding could have therapeutic implications for patients with CBF mediated leukemias. We developed a CBF-beta and RUNX1 binding assay in AlphaScreenTM format and optimized it for high throughput screening to search for inhibitors. The goal of this project is to screen MLPCN's compound collection (MLSMR) for identifying the inhibitors of the interaction between CBF-beta and RUNX1 proteins as research probes. If these probes work well in the animal models, the ultimate goal of this project is to development a new drug treatment for this disease.
This assay can not be used to assess how apparent inhibitors interfere with protein binding, and whether inhibitors specifically bind to either protein. Disruption of this protein-protein interaction, through any mechanism, is the intended target activity.
The present data set was run to confirm the activity of hits from the primary screen.
NCGC Assay Protocol Summary:
Step, Parameter, Description
(1) Reagent, 3 uL CBFb-His/RUNX1-biotin mix incubated together for 20 minutes at room temperature (30 nM each)
(2) Compound or control, 23 nL compound stock solution
(3) Incubation, 15 minutes at Room temperature
(4) Reagent, 1 uL 50 ng each of beads (Nickel beads and streptavidin beads)
(5) Incubation, 90 minutes at Room temperature
(6) Detection, Excitation=365 nm Emission=440 nm, Envision reader in AlphaScreenTM mode
Keywords: MLSMR, MLPCN, NIH Roadmap, qHTS, NCGC, Core binding factor, CBF, CBF-beta, Acute myeloid leukemia
For `N#Cc1cccc(C#N)c1Oc1ccc(S(=O)(=O)Nc2ccc(Cl)cc2)cc1`, the “activity, negative = inhibition” value is inactive: -0.103%.
Same read-out and setting: under `C=C(C)c1cccc(C(C)(C)NC(=O)N2CCN(c3ccccc3)CC2)c1` stands inactive: 4.16%.
Take `COC(=O)C/C(N)=C(\C#N)C(=O)OC`: the “activity, negative = inhibition” value was inactive: 7.94%.
As to `O=C(NC(=S)Nc1ccccc1N1CCCC1)c1cccs1`, the “activity, negative = inhibition” value was inactive: -6.14%.
On the same count and under the same terms, under `Fc1ccccc1/C=N/n1c(-c2cccnc2)n[nH]c1=S` stands inactive: -0.276%.
For the compound `COc1ccc2nc(-c3ccc(Cl)cc3)cc(C(=O)O)c2c1`, the “activity, negative = inhibition” value was inactive: -1.23%.
For `O=S(=O)(NCc1ccccn1)c1cc(OCC(F)(F)F)ccc1OCC(F)(F)F`, the “activity, negative = inhibition” value is inactive: -5.21%.
Take `CN(C(=O)Nc1ccc(C(C)(C)C)cc1)C1CCCCC1`: the “activity, negative = inhibition” value was inactive: 3.09%.
The same measure, in the same setting: under `COc1ccc(CCNC(=S)NC(=O)c2c(-c3ccccc3Cl)noc2C)cc1OC` stands inactive: -11.4%; under `O=[N+]([O-])c1ccc2c(c1)S(=O)c1ccccc1-2` (configuration not stated), inactive: -4.82%.
Regarding `CCCNC(=S)Nc1ccccc1`, the “activity, negative = inhibition” value was inactive: -3.03%.
For `c1ccc(N2CCOCCOCCOCCOCC2)cc1`, the “activity, negative = inhibition” value was inactive: -1.73%.
In the case of `CCN(CC)S(=O)(=O)c1cccc(N2CC(O)=C(c3ccccc3)C2=N)c1`, the “activity, negative = inhibition” value was inactive: -0.813%.
Same read-out and setting: under `CCOC(=O)/C(C#N)=C/Nc1cc(F)ccc1C` stands inactive: -3.99%.
`Cc1ccc(NC(=S)Nc2ccccn2)cc1C`: the “activity, negative = inhibition” value was inactive: -4.63%.
Same read-out and setting: under `Cc1c(O)nc2ccccn2c1=O` stands inactive: 1.38%; under `CSC(=Nc1ccccc1)Nc1ccccc1`, inactive: -0.945%; under `O=C(/C=C/c1ccccc1)Nc1cccnc1Oc1ccccc1F`, inactive: -4.55%.
Still for that read-out and setting: under `O=S(=O)(Nc1cccc(CCc2ccccn2)c1)c1cc(Cl)ccc1Cl` stands inactive: -7.59%.
As for `Nc1ccc2nc3c(=O)[nH]c(=S)[nH]c3nc2c1`, the Potency is active: 2.51 µM.
For `O=C(Oc1c(-c2ccccc2)c(=O)n2c3c(cccc13)CC2)c1ccccc1`, the “activity, negative = inhibition” value was inactive: -1.65%.
On to `Brc1cc(Br)cc(CN2CCSCC2)c1`, for which the “activity, negative = inhibition” value is inactive: 0.277%.
`Cc1cc2c3ccccc3ncn2n1`: the “activity, negative = inhibition” value is inactive: -1.64%.
On to `Cc1nc([N+](=O)[O-])cn1CC(O)c1ccccc1` (configuration not stated), for which the “activity, negative = inhibition” value was inactive: 0.256%.
As for `c1ccc2c(c1)Nc1ccncc1S2`, the “activity, negative = inhibition” value was inactive: 7.18%.
As to `Cc1nnsc1C(=O)N/N=C/c1ccccc1Cl`, the “activity, negative = inhibition” value is inactive: 1.58%.
For `COc1ccc(OC)c(-c2c3cc(O)c(=O)cc-3oc3cc(O)c(O)cc23)c1`, the Potency is active: 2.24 µM.
Regarding `CCOc1ccc(Nc2nc(N)nc(CSC(=S)N3CCOCC3)n2)cc1`, the “activity, negative = inhibition” value is inactive: -12.1%.
Regarding `Cc1cc(N2CCOCC2)n2ncc(-c3ccc(Cl)cc3)c2n1`, the “activity, negative = inhibition” value was inactive: -1.58%.
In the case of `CC1=NNC(=O)C1Cc1ccc(F)cc1` (configuration not stated), the “activity, negative = inhibition” value was inactive: -5.63%.
Still for that read-out and setting: the result for `CCOC(=O)C1=C(O)C(=O)N(C2CCCCC2)C1` reads inactive: -4.13%; that for `CCCCCCCC1(C)NC(=O)NC1=O` (configuration not stated), inactive: 2.95%; that for `O=C(CNC(=O)C(c1ccccc1)c1ccccc1)N/N=C\c1cccc(O)c1`, inactive: -1.65%.
As to `Cc1ccc(-n2ncc(-c3nn[nH]n3)c2N)cc1`, the “activity, negative = inhibition” value is inactive: -2.4%.
Same read-out and setting: the result for `COc1ccc(/C=C/C(=O)NCCc2nc3ccccc3[nH]2)cc1` reads inactive: 3.93%.
On to `O=C(CCC(=O)N1CCN(c2ccc(O)cc2)CC1)c1ccc(Br)cc1`, for which the “activity, negative = inhibition” value was inactive: -7.61%.
Take `COc1ccccc1NC(=O)Nc1sccc1-c1nc2ccccc2s1`: the “activity, negative = inhibition” value was inactive: -17.1%.
Same read-out and setting: the result for `COc1ccc(NC(=O)C2=NNC(=O)CC2)cc1S(=O)(=O)N1CCCCC1` reads inactive: -0.84%; that for `Cc1cccc(CC(=O)c2c[nH]c3ccccc23)c1`, inactive: -8.61%; that for `CC(C)C1N(C(N)=S)N=CC1(C)C` (configuration not stated), inactive: -1.01%.
Same read-out and setting: under `COC(=O)c1ccccc1N=Nc1c(C)n[nH]c1C` stands inactive: 2.67%; under `CC(C)(C)N1CCC1C(N)=O` (configuration not stated), inactive: 12.6%.
Regarding `Cc1cc(OCC(=O)c2cccc(C(F)(F)F)c2)n2cnnc2n1`, the “activity, negative = inhibition” value was inactive: 1.34%.
Consider `CC(C)(C)c1ccc(C(=O)Nc2ccc(S(N)(=O)=O)cc2)cc1`, for which the “activity, negative = inhibition” value was inactive: 7.64%.
Consider `Cc1ccc2c(N)c(C(=O)c3ccccc3)sc2n1`, for which the “activity, negative = inhibition” value was inactive: 5.79%.
With `Cc1ccc2nc(C)c3c(c2c1)N(c1ccccc1)CC3`, the “activity, negative = inhibition” value was inactive: -1.02%.
For `Cc1nn(C)c(=O)c(N)c1-c1cc(-c2ccc(Cl)c(Cl)c2)n[nH]1`, the “activity, negative = inhibition” value was inactive: -0.481%.
For the compound `Cc1cc2c(NS(=O)(=O)c3ccc(F)cc3)cccc2nn1`, the “activity, negative = inhibition” value was inactive: -8.4%.
Still for that read-out and setting: the result for `COC(=O)C(=Cc1ccccc1[N+](=O)[O-])C(=O)OC` reads inactive: -2.17%; that for `COC(=O)c1ccc(Cn2cc([N+](=O)[O-])cn2)cc1`, inactive: -7.08%; that for `Clc1ccc(Nc2ccc(Cl)nn2)cc1`, inactive: 2.4%.
Regarding `Cc1ccc(-c2c[n+](CC(=O)Nc3ccccc3C)c3n2CCC3)cc1`, the “activity, negative = inhibition” value was inactive: -1.35%.
Regarding `CC(C)CC(=O)Nc1nnc(CSCc2ccc(F)cc2)s1`, the “activity, negative = inhibition” value is inactive: -0.201%.
With `COc1ccc(C2CN=NC23CCc2ccccc2C3=O)cc1` (configuration not stated), the “activity, negative = inhibition” value is inactive: -7.55%.
With `Cc1cccc(C)c1NC(=S)N/N=C/c1ccc(C(=O)O)cc1`, the “activity, negative = inhibition” value was inactive: -14.8%.
`c1ccc(-c2n[nH]c(-c3ccccn3)n2)nc1`: the Potency was active: 1 µM and active: 708 nM.
Take `Cc1ccc(Oc2ncccc2N)c2c1CCC2`: the “activity, negative = inhibition” value was inactive: -11.1%.
Take `CC(Cc1c[nH]c2ccccc12)C(=O)O` (configuration not stated): the Potency was active: 12.2 µM.
With `Nc1nc(-c2ccccc2)c(N=Nc2ccc(Cl)cc2)s1`, the Potency was active: 13.7 µM.
Turning to `CC1CCC2(CC1)NC(=S)N(C(C)(C)C)N2` (configuration not stated), the “activity, negative = inhibition” value was inactive: -1.9%.
Take `O=C(/C=C/c1ccccc1Cl)Nc1ccccc1`: the “activity, negative = inhibition” value is inactive: -0.892%.
With `CC(C)[C@H](NC(=O)OC(C)(C)C)C(=O)N/N=C/c1ccc2nccnc2c1`, the “activity, negative = inhibition” value was inactive: -2.34%.
